Positions count from the first letter of the chain named. This is one part of the list.
B1: UGUCAGG (DNA:RNA)
RNA: GGGAGACCGGAAUUCAGAUUGUCCUGUCAGGUUAAAUCCCGUCGUAGCCACCA
DNA 1: CAATCTGAATTCCGGTCTCCC
DNA 2: TGGTGGCTACGACGGGATT
B2: UGUCGAU (DNA:RNA)
RNA: B1 RNA with A29G, G30A, G31U
DNA 1: CAATCTGAATTCCGGTCTCCC
DNA 2: TGGTGGCTACGACGGGATT
B3: AUCAGUC (DNA:RNA)
RNA: GGGAGACCGGAAUUCAGAUUGUCCAUCAGUCUUAAAUCCCGUCGUAGCCACCA
DNA 1: CAATCTGAATTCCGGTCTCCC
DNA 2: TGGTGGCTACGACGGGATT
B4: UGGGAUA (DNA:RNA)
RNA: B1 RNA with U27G, C28G, G30U, G31A
DNA 1: CAATCTGAATTCCGGTCTCCC
DNA 2: TGGTGGCTACGACGGGATT
B5: UGUCUGU (DNA:RNA)
RNA: B1 RNA with A29U, G31U
DNA 1: CAATCTGAATTCCGGTCTCCC
DNA 2: TGGTGGCTACGACGGGATT
B6: UCUCCAA (DNA:RNA)
RNA: B1 RNA with G26C, A29C, G30A, G31A
DNA 1: CAATCTGAATTCCGGTCTCCC
DNA 2: TGGTGGCTACGACGGGATT
B7: UCGACUU (DNA:RNA)
RNA: B3 RNA with A25U, U26C, C27G, G29C, C31U
DNA 1: CAATCTGAATTCCGGTCTCCC
DNA 2: TGGTGGCTACGACGGGATT
B8: ACAGGCC (DNA:RNA)
RNA: B3 RNA with U26C, C27A, A28G, U30C
DNA 1: CAATCTGAATTCCGGTCTCCC
DNA 2: TGGTGGCTACGACGGGATT
B9: GGAUAGG (DNA:RNA)
RNA: B1 RNA with U25G, U27A, C28U
DNA 1: CAATCTGAATTCCGGTCTCCC
DNA 2: TGGTGGCTACGACGGGATT
B10: UGCCGUU (DNA:RNA)
RNA: B3 RNA with A25U, U26G, A28C, C31U
DNA 1: CAATCTGAATTCCGGTCTCCC
DNA 2: TGGTGGCTACGACGGGATT
B11: GCUAGAG (DNA:RNA)
RNA: B3 RNA with A25G, U26C, C27U, U30A, C31G
DNA 1: CAATCTGAATTCCGGTCTCCC
DNA 2: TGGTGGCTACGACGGGATT
B12: CGGCAGA (DNA:RNA)
RNA: B1 RNA with U25C, U27G, G31A
DNA 1: CAATCTGAATTCCGGTCTCCC
DNA 2: TGGTGGCTACGACGGGATT
B13: AUCAUUC (DNA:RNA)
RNA: B3 RNA with G29U
DNA 1: CAATCTGAATTCCGGTCTCCC
DNA 2: TGGTGGCTACGACGGGATT
B14: CGCAGCG (DNA:RNA)
RNA: B3 RNA with A25C, U26G, U30C, C31G
DNA 1: CAATCTGAATTCCGGTCTCCC
DNA 2: TGGTGGCTACGACGGGATT
B15: AGGGUGG (DNA:RNA)
RNA: B1 RNA with U25A, U27G, C28G, A29U
DNA 1: CAATCTGAATTCCGGTCTCCC
DNA 2: TGGTGGCTACGACGGGATT
B16: GGCGUUU (DNA:RNA)
RNA: B3 RNA with A25G, U26G, A28G, G29U, C31U
DNA 1: CAATCTGAATTCCGGTCTCCC
DNA 2: TGGTGGCTACGACGGGATT
B17: CGUUUUU (DNA:RNA)
RNA: B1 RNA with U25C, C28U, A29U, G30U, G31U
DNA 1: CAATCTGAATTCCGGTCTCCC
DNA 2: TGGTGGCTACGACGGGATT
B18: UCUUAAU (DNA:RNA)
RNA: B1 RNA with G26C, C28U, G30A, G31U
DNA 1: CAATCTGAATTCCGGTCTCCC
DNA 2: TGGTGGCTACGACGGGATT
B19: AAGAAUC (DNA:RNA)
RNA: B3 RNA with U26A, C27G, G29A
DNA 1: CAATCTGAATTCCGGTCTCCC
DNA 2: TGGTGGCTACGACGGGATT
B20: UCAGACG (DNA:RNA)
RNA: B1 RNA with G26C, U27A, C28G, G30C
DNA 1: CAATCTGAATTCCGGTCTCCC
DNA 2: TGGTGGCTACGACGGGATT
B21: AAACUCC (DNA:RNA)
RNA: B3 RNA with U26A, C27A, A28C, G29U, U30C
DNA 1: CAATCTGAATTCCGGTCTCCC
DNA 2: TGGTGGCTACGACGGGATT
B22: GGACUCU (DNA:RNA)
RNA: B1 RNA with U25G, U27A, A29U, G30C, G31U
DNA 1: CAATCTGAATTCCGGTCTCCC
DNA 2: TGGTGGCTACGACGGGATT
B23: CAGGUAC (DNA:RNA)
RNA: B3 RNA with A25C, U26A, C27G, A28G, G29U, U30A
DNA 1: CAATCTGAATTCCGGTCTCCC
DNA 2: TGGTGGCTACGACGGGATT
B24: CUCAAUA (DNA:RNA)
RNA: B3 RNA with A25C, G29A, C31A
DNA 1: CAATCTGAATTCCGGTCTCCC
DNA 2: TGGTGGCTACGACGGGATT
B25: AAACCGC (DNA:RNA)
RNA: B3 RNA with U26A, C27A, A28C, G29C, U30G
DNA 1: CAATCTGAATTCCGGTCTCCC
DNA 2: TGGTGGCTACGACGGGATT
B26: GAACCAC (DNA:RNA)
RNA: B3 RNA with A25G, U26A, C27A, A28C, G29C, U30A
DNA 1: CAATCTGAATTCCGGTCTCCC
DNA 2: TGGTGGCTACGACGGGATT
B27: GUAUGCG (DNA:RNA)
RNA: B3 RNA with A25G, C27A, A28U, U30C, C31G
DNA 1: CAATCTGAATTCCGGTCTCCC
DNA 2: TGGTGGCTACGACGGGATT
B28: CUCGAUU (DNA:RNA)
RNA: B3 RNA with A25C, A28G, G29A, C31U
DNA 1: CAATCTGAATTCCGGTCTCCC
DNA 2: TGGTGGCTACGACGGGATT
B29: UCGUAUC (DNA:RNA)
RNA: B3 RNA with A25U, U26C, C27G, A28U, G29A
DNA 1: CAATCTGAATTCCGGTCTCCC
DNA 2: TGGTGGCTACGACGGGATT
B30: GUCUGCU (DNA:RNA)
RNA: B3 RNA with A25G, A28U, U30C, C31U
DNA 1: CAATCTGAATTCCGGTCTCCC
DNA 2: TGGTGGCTACGACGGGATT
B31: GGAUGAA (DNA:RNA)
RNA: B3 RNA with A25G, U26G, C27A, A28U, U30A, C31A
DNA 1: CAATCTGAATTCCGGTCTCCC
DNA 2: TGGTGGCTACGACGGGATT

The binders below were run against T1, RBFOX1 RRM RbFoxmut (Fox-RRM*) (Homo sapiens, UniProt Q9NWB1 109-208, R118D;E147R;N151S;E152T) (assay: EMSA; HiTS-Eq, 1 nM pool, 10 min; buffer printed only for the single-RNA assays: 10 mM Tris pH 7.5, 150 mM NaCl, 3.4 mM EDTA, 0.001% NP-40, 30 C). Settings: tags: His6 N-terminal (pET28a); label: 5' 32P.
T1 sequence: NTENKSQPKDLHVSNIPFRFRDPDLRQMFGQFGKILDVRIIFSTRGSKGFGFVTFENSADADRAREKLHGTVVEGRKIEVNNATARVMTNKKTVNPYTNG
In short: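 A pool of RNA with 7 randomized nucleotides, 5′-radiolabelled and with DNA-annealed flanks, was equilibrated at 1 nM for 10 min in 50 µL with purified RbFox RRM, wild type or mutant, across increasing protein concentrations. Free RNA was separated by 8% native PAGE, excised, reverse-transcribed, barcoded by PCR and sequenced. Relative association constants were obtained from read-count changes of each RNA species versus the control reaction and normalised to the cognate motif.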
In the case of B1, the binding signal is reported as 0.0783 KA relative to UGCAUGU. In the case of B2, the binding signal is reported as 0.0789 KA relative to UGCAUGU. B3 was tested, and the binding signal was 0.0931 KA relative to UGCAUGU. With B4 the binding signal was 0.144 KA relative to UGCAUGU. For B5, the binding signal was 0.164 KA relative to UGCAUGU. With B6 the binding signal was 0.0797 KA relative to UGCAUGU. In the case of B7, the binding signal is reported as 0.0543 KA relative to UGCAUGU. B8 was tested, and the binding signal was 0.18 KA relative to UGCAUGU. For B9, the binding signal was 0.0913 KA relative to UGCAUGU. B10 was tested, and the binding signal was 0.113 KA relative to UGCAUGU. In the case of B11, the binding signal is reported as 0.101 KA relative to UGCAUGU. B12 was tested, and the binding signal was 0.0836 KA relative to UGCAUGU. With B13 the binding signal was 0.0825 KA relative to UGCAUGU. In the case of B14, the binding signal is reported as 0.135 KA relative to UGCAUGU. In the case of B15, the binding signal is reported as 0.126 KA relative to UGCAUGU. B16 was tested, and the binding signal was 0.0849 KA relative to UGCAUGU. With B17 the binding signal was 0.103 KA relative to UGCAUGU. B18 was tested, and the binding signal was 0.0912 KA relative to UGCAUGU. For B19, the binding signal was 0.168 KA relative to UGCAUGU. For B20, the binding signal was 0.103 KA relative to UGCAUGU. In the case of B21, the binding signal is reported as 0.0469 KA relative to UGCAUGU. For B22, the binding signal was 0.0789 KA relative to UGCAUGU. For B23, the binding signal was 0.122 KA relative to UGCAUGU. B24 was tested, and the binding signal was 0.0933 KA relative to UGCAUGU. In the case of B25, the binding signal is reported as 0.0847 KA relative to UGCAUGU. B26 was tested, and the binding signal was 0.109 KA relative to UGCAUGU. B27 was tested, and the binding signal was 0.468 KA relative to UGCAUGU. In the case of B28, the binding signal is reported as 0.0745 KA relative to UGCAUGU. With B29 the binding signal was 0.192 KA relative to UGCAUGU. With B30 the binding signal was 0.101 KA relative to UGCAUGU. For B31, the binding signal was 0.178 KA relative to UGCAUGU.

— publication PMC9911399, “Two distinct binding modes provide the RNA-binding protein RbFox with extraordinary sequence specificity”
